Among the data in ChEMBL document CHEMBL1157539, “Thousands of chemical starting points for antimalarial lead identification” (Nature, 2010) are IFI values, retold here.

Over roughly 13,000 compounds, “IFI” has its median near 4; the highest 2% begin near 17. The list shows a part of the results.

The assay can be described thus: GSK_TCMDC: Inhibition Frequency Index (IFI). The number of non-kinase HTS assays where a compound showed > 50 % inhibition, expressed as a percentage of the number of such assays in which the compound was tested (-0 is zero). Format: functional.
`CCCCCN1CCCC1CNS(=O)(=O)c1cccc(C(=O)Nc2cccc(C#N)c2)c1` (stereo not drawn) had an IFI of 1.22%.

The molecule `COc1ccc(CNCC2CCC(CNCCc3ccccc3)CC2)cc1Cl` (stereo not drawn) returned an IFI of 2.21%. In the case of `CCCc1cc(=O)[nH]c(-n2nc(C)cc2NC(=O)C(CC)c2ccccc2)n1` (stereo not drawn), the IFI worked out at 18.5%. On to `NC1=Nc2ccc(Cl)cc2C1(O)c1ccccc1` (stereo not drawn), for which the IFI stood at 1.4%. To `CC(C)(C)C/C=C\c1ccc(C(=O)NCC2CC2)cc1` belongs 4.72%; to `O=C(/C=C/c1ccc(Cl)c(Cl)c1)NCCCCCN1CCC(CCNC(=O)Cc2ccc(Cl)cc2)CC1`, 5.59%; to `CC(C)OC(=O)c1cccnc1SCC(=O)Nc1ccc(C(F)(F)F)cc1Cl`, -0%. The result for `N#CC1(c2ccccc2)CCN(c2nc(NCCCN3CCCC3=O)nc(N3CCCC4CCCCC43)n2)CC1` (stereo not drawn) reads -0%; that for `Cc1cccc2nc(-c3ccc(-c4ccc(CN5CCN(CC6CCCN(C)C6)CC5)cc4)s3)[nH]c12` (stereo not drawn), 7.04%.

As for `CN(/N=C/c1ccc(Cl)cc1)c1nc(NCCc2ccc(O)cc2)nc(N2CCNCC2)n1`, the IFI stood at 4.51%. On to `COc1cccc(OC)c1C(=O)N1CCC2(CC1)C(=O)N(CC(=O)NC1CCCCC1)CN2c1ccccc1`, for which the IFI was -0%.

Take `CC(C)CCCC(C)NC[C@@H](O)[C@H](Cc1ccccc1)NC(=O)c1cc(N2CCCC2=O)cc(N(c2ccccc2)S(C)(=O)=O)c1` (stereo partly drawn): the IFI came to 4.51%.

`c1cc(CNCCc2ccncc2)cc(-c2cccc(-c3nc4ccccc4[nH]3)c2)c1`: the IFI was found to be 7%.

For the molecule `O=C(NCCN1CCC(c2ccncc2)CC1)c1ccc(Nc2nccc(Nc3ccc(Oc4ccccc4)cc3)n2)cc1`, the IFI was 5.19%.

In turn, `O=C(Nc1ccc(OC2CCN(Cc3ccsc3)C2)c(Cl)c1)c1ccc(F)cc1` (stereo not drawn) came in with an IFI of 8.2%. As for `C=CCOc1ccc(Cc2cnc(N)nc2N)cc1CCC`, the IFI is 5.93%. The result for `COc1ccc2c(c1)OC(C)(C)CC2=NOS(=O)(=O)c1ccc(C)cc1` reads 1.39%; that for `CCCCC(=O)Nc1nc2ccc([N+](=O)[O-])cc2s1`, 1.42%; that for `c1ccc(COc2ccc(C3CCCCC3)cc2)nc1`, 2.9%. Turning to `Cc1cccc2nc(-c3ccc(-c4cccc(NC(=O)Nc5ccc(Cl)cc5)c4)s3)[nH]c12`, the IFI was 3.03%. To `COc1ccc(CN2CCC(CNCCc3ccccc3Oc3ccccc3)CC2)cc1` belongs 9.86%; to `COc1cccc(N(CCCN2C(=O)c3cccc4cccc(c34)C2=O)C(=O)c2ccccc2C)c1`, 3.23%; to `O=C(Nc1cccc(-c2nn3ccccc3c2-c2ccnc(Nc3ccc(NCCCN4CCOCC4)c(F)c3)n2)c1)c1c(F)cccc1F`, 5.22%. To `O=C(N[C@H]1CCN(Cc2ccc(OCCCN3CCCCC3)cc2)C1)c1ccc(Cl)c(Cl)c1` belongs 7.64%; to `COc1ccc2nccc(N3CCC(CCNCc4cc5c(cn4)OCCO5)CC3)c2n1`, 5%; to `Cn1cnc2c(SCc3ccccc3OCc3ccccc3)ncnc21`, 3.36%. To `CCC(C)NC(=O)CN1CN(c2ccccc2)C2(CCN(C(=O)c3ccc(-c4ccccc4)cc3)CC2)C1=O` (stereo not drawn) belongs 1.67%; to `COc1ccc(C(=O)CC(=O)c2ccc(OC)cc2OC)c(OC)c1`, 1.41%; to `CCn1cnc2c(N3CCCC3=O)cc(C(=O)N[C@@H](Cc3ccccc3)[C@H](O)CNC3CCCCC3)cc21`, 1.49%. `O=C(NCc1ccc(Cl)c(Cl)c1)c1cccc(C2CCCN(Cc3ccc4[nH]cnc4c3)C2)c1` (stereo not drawn) returned an IFI of 5%.

Regarding `CCC[C@@H]([C@@H](CC(C)C)C(=O)N[C@H](C(=O)Nc1nccs1)C(C)(C)SCCNC(=O)OCC)N(O)C=O`, the IFI was found to be 1.48%. As to `Cc1ccc(N2C(=O)C3C(C2=O)C2(c4ccccc4)C(=O)C3(c3ccccc3)C(c3ccccc3)=C2c2ccccc2)cc1` (stereo not drawn), the IFI was 0.74%.

`O=C(Nc1ccc(-c2ccc(-c3nc4cc(C(F)(F)F)ccc4[nH]3)s2)cc1)c1c[nH]cn1` had an IFI of 5.5%. Molecule `COc1cccc(C(=O)Nc2ccc(Nc3nc(C)cc(N4CCCCC4)n3)cc2)c1OC` had an IFI of 13%. On to `c1ccc2c3c([nH]c2c1)C(c1ccc2c(c1)CCO2)N(c1ncnc(N2CCN(CCCN4CCOCC4)CC2)n1)CC3` (stereo not drawn), for which the IFI was determined as 7.41%. To `COC(=O)C(NC(=O)NC1CCN(c2ccnc(Nc3ccc(F)cc3)n2)C1)c1ccccc1` (stereo not drawn) belongs -0%; to `CN1CCC(NCc2cccc(-c3cnc(NCc4ccccc4)nc3)c2)CC1`, 5.56%; to `Cc1cccc(C(=O)Nc2ccc(N3CCCN(Cc4cccc(O)c4)CC3)cc2)c1`, 7.69%. The molecule `c1cc(-c2cc3ccc(C4=NCCN4)cc3[nH]2)ccc1C1=NCCN1` came in with an IFI of 3.36%. In turn, `COc1ccc(CN2CCN(CCCCNC(=O)c3ccc(NC(=O)c4ccc(Cl)cc4)cc3)CC2)c(OC)c1` came in with an IFI of 2.68%. The result for `Cc1nn(CC(O)Cn2c3ccc(Br)cc3c3cc(Br)ccc32)c(C)c1Br` (stereo not drawn) reads 1.48%; that for `c1ccc(CN2CCC(NCc3ccccc3-c3cccc(CNC4CCCC4)c3)CC2)cc1`, 5.84%. The result for `COc1cc(F)c2ncc(Cl)c([C@@H](O)CN3CCC(NCc4ccc5c(n4)NC(=O)CO5)CC3)c2c1` reads 0.88%; that for `Cc1ccc(NC(=O)c2cccc(CN3CCCN(Cc4cccc(O)c4)CC3)c2)cc1`, 1.43%.

For the molecule `Cn1ncc2ccc(Nc3nccc(-c4ccc5c(c4)c(N)nn5C)n3)cc21`, the IFI is 17.8%. As for `COc1ccc(CNC2CCN(C)CC2)cc1-c1ccc(S(=O)(=O)NC2CCC2)c(F)c1`, the IFI stood at 6.67%. To `CNCc1cccc(-c2ccc3ccnc(N)c3c2)c1` belongs 1.87%. `O=C(Nc1ccc(Oc2cccnc2)cc1)C1CCN(Cc2cc(Cl)ccc2O)CC1`: the IFI worked out at 11.1%. On to `CN(C)c1cccc2c1nc(-c1ccco1)n2CC1CCCN1` (stereo not drawn), for which the IFI came to 1.33%.

The molecule `Nc1nc(N)c2c(Cc3ccc(Br)cc3)cccc2n1` displayed an IFI of 3.57%. `CCCN(CCC)CC(O)COc1ccccc1C(=O)Nc1ccccc1` (stereo not drawn) returned an IFI of 0%. With `O=C(CCc1cccnc1)Nc1ccc(-c2cccc(-c3nc4cc(F)ccc4[nH]3)c2)cc1`, the IFI was found to be 4.35%. The molecule `CC(C)[C@H](NC(=O)c1c(CN2CCC(N3CCCCC3)CC2)c(-c2ccccc2)nc2cc(O)ccc12)c1ccccc1` registered an IFI of 4.29%. The result for `COc1ccc(Cl)cc1N1CCN(CCCNC(=O)c2ccc(-c3nc4cc5ccccc5cc4[nH]3)c(F)c2)CC1` reads 4.32%. To `CN(C)CCCNc1ncnc2c1[nH]c1ccc(Cl)cc12` belongs -0%; to `O=C(Nc1ccc2c(c1)CCCN2S(=O)(=O)c1cccs1)c1cc([N+](=O)[O-])ccc1Cl`, 10.3%; to `O=C(CSc1nnc(-c2ccccc2Br)[nH]1)c1c[nH]c2ccccc12`, 0.69%. To `Cc1ccc(S(=O)(=O)NC(=N)NC(N)=O)cc1` belongs -0%.
